Test results: the supplement of paper PMC11417369
± gives the standard deviation of the averaged measurements. Some of the results follow.

system: PfAP2-LT AP2 domain (GST-tagged); experiment: gcPBM binding intensity (ln(normalized median fluorescence intensity)); higher = stronger DNA binding
Procedure, shortened: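 After 1 h on an Agilent 4 × 180k array of primer-extended double-stranded 36-bp intergenic genomic probes and negative controls, bound GST-tagged P. falciparum DNA-binding domains were detected with Alexa488 anti-GST antibody and scanned at 488 nm. The domains had been expressed in E. coli, and binding took place in 1× PBS with 1% milk, 0.2 mg/ml BSA, 0.5% salmon testes DNA and 0.03% Triton X-100. Binding intensity is the highest Masliner-normalised natural-log median intensity across replicate spots of either probe orientation.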

| Sequence | gcPBM binding intensity (ln) |
| --- | --- |
| AGAAAACATATGTTTTGTACTTAAGAAAAAAAAAAA [XGTACX_site4231] | 8.58 ± 0.58 |
| TTTTATATGTTATATACACACATATAAATAAATATA [CACACA_site7418] | 8.6 ± 0.33 |
| AAAAAAAAATTAAAATGTACACATAAAAAAAAAAAA [XGTACX_site794] | 8.76 ± 0.57 |
| AAAAATAAATAAATATGTACATATATACATATATAT [XGTACX_site5892] | 8.82 ± 0.45 |
| AAAAAAAAAACACGCGCACACACACCCACCCACCCA [CACACA_site8689] | 10.365 ± 0.0071 |
| ACTAATAAAGGTGTAATACACACTATAAAAAGGAAT [CACACA_site1124] | 9.14 ± 0.48 |
| ATTATTCCATATTATTGTACTTTAATTTTTTAAACC [XGTACX_site2960] | 8.67 ± 0.44 |
| TTTTTATCAACAAATAATACCATAACTCATATTTAT [CACACA_negctrl_site740] | 8.51 ± 0.48 |
| TATAAAATTTTTAAAAGTACATATTTTACATAATAC [XGTACX_site2193] | 8.27 ± 0.45 |
| GAGAGGTATCAAAAATGTACACATATATATATGTAT [XGTACX_site5611] | 8.94 ± 0.4 |
| TTTTTTCTTTATTATGGTACGTATAAAAAAATTATA [XGTACX_site3433] | 8.2 ± 0.42 |
| ATATATAATATATATTGTACAGGTATGTCTATAAAT [XGTACX_site2243] | 8.91 ± 0.28 |
| ATATATTTTTTTTTTTCACACATTAGGATTCATATA [CACACA_site5758] | 8.76 ± 0.41 |
| ATCATATGTATGGTGGTGCATTATGCATGAATTTTA [GTGCAC_site9798] | 8.89 ± 0.54 |
| TAATAATATATAAAAAGTACATAACAAGATATGAAA [XGTACX_site4921] | 8.77 ± 0.47 |
| AGAAAAAAATAATCATCACACACGGAGAATGTCCAA [CACACA_site2314] | 9.35 ± 0.25 |
| GAAAATAACTAAAATTGTACAAAGAAACATATATTT [XGTACX_site6484] | 8.87 ± 0.48 |
| GATATTCATTATATATGTACATATATGTAATATATA [XGTACX_site2210] | 8.77 ± 0.42 |
| TATATATATCTGTATACACACATACAAATATGTAAA [CACACA_site5950] | 9.01 ± 0.28 |
| TATTAAAGCACCCATGCACACACACTAAGGAAAAGA [CACACA_site7961] | 9.61 ± 0.35 |
| TAAAGAATATTATAAACACACACTTTATAAAGAATT [CACACA_site114] | 8.89 ± 0.28 |
| TGTTGATTTATCCTGTGTACGGATATATATCTTTCA [XGTACX_site7826] | 8.88 ± 0.42 |
| TATATAAAGAAACACACACACACCTTATAATTATTA [CACACA_site4062] | 9.74 ± 0.18 |

| Sequence | gcPBM binding intensity (ln) |
| --- | --- |
| GTAATTATACATATTACACACTCTCTTGATCTTTTT [CACACA_site7756] | 8.97 ± 0.46 |
| TATATAAACCCACCTACACACACAACGTAAATGCAT [CACACA_site8702] | 9.62 ± 0.23 |
| ATTATTATATTCAAATGTACTTAATAAACATTTTAA [XGTACX_site3023] | 8.31 ± 0.32 |
| TTTATCTAAATATGTGTGCACTCGTTAATTTTTTTT | 9.07 ± 0.52 |
| ATATTTATAATTTTTTGTACACATTTTTTAAAGATA [XGTACX_site1784] | 8.61 ± 0.39 |
| TATAAGAGAAGAAGAAAAAAAAGGTTTCTATAGAAA [XGTACX_negctrl_site421] | 8.4 ± 0.55 |
| CATATAGTAATATATACACACACTTGTCTTGTAAAA [CACACA_site8238] | 9.15 ± 0.39 |
| AAGAAGCATAAATGTACACACATATTTATATATTAA [CACACA_site1332] | 9.01 ± 0.43 |
| ATAGTATACAGACACACACACACACGGATATAAATA [CACACA_site6914] | 10.1 ± 0.36 |
| ATATATATATATATATGTACTAAATATTCATCCTTA [XGTACX_site6039] | 9.34 ± 0.6 |
| AAGTTTAAGAAATAATTCATATTTACTTCCATCCTC [GTGCAC_negctrl_site494] | 8.54 ± 0.52 |
| TACATATAAATATATAAATATAAATAAATAAATAAA [XGTACX_negctrl_site180] | 8.69 ± 0.45 |
| TTTTTTTTTTTTTTTGCACACACATTGAATTATTAT [CACACA_site198] | 9.37 ± 0.45 |
| AAATGGAAAAGGTGTACACAAAAAAAAGGGAAAAGC [CACACA_site5331] | 9.37 ± 0.5 |
| TTACCAAAAACCTCAAGTACAAAAAATCCCTAATAT [XGTACX_site2313] | 8.71 ± 0.43 |
| CTTTATATATAGTGTACACATTAAACAAATCTCAAT [CACACA_site5845] | 8.73 ± 0.36 |
| TATATATGTATATATGGTACAGAATATTCTACATTA [XGTACX_site5077] | 8.66 ± 0.38 |
| CAATCATTTTATTGTTGTACAGTAATTATGAATTCA [XGTACX_site7508] | 8.54 ± 0.41 |
| TACCACATCGGTAAATGTACTTATAAAAAAAAAAAA [XGTACX_site3364] | 8.41 ± 0.41 |
| CATCCACATATATGTACACACATATATATATATATA [CACACA_site2964] | 9.92 ± 0.21 |
| TATAAACTTAATTTGAGTACTTAATAATAATTTTGT [XGTACX_site3730] | 8.37 ± 0.48 |
| AATGGGTTAGCACATACACACCAATATATTATATAT [CACACA_site9011] | 8.98 ± 0.49 |
| ATTTATGATATGTAAACATGCATAAAAATTTCAAAA [TGCATGCA_site858] | 8.56 ± 0.4 |

| Sequence | gcPBM binding intensity (ln) |
| --- | --- |
| TATATATATATATTATGTACGTATCAGTTTGTATGT [XGTACX_site695] | 9.3 ± 0.17 |
| ATTTTTAATATTATTACACACACTAAAAAAAAAAAA [CACACA_site1067] | 8.75 ± 0.38 |
| TTATAAATTAGAGGTACACACAAAAAAAAAAAGAAA [CACACA_site6740] | 8.94 ± 0.48 |
| CACGACATTAACAATACATGCAGAAAAACAAAAAAT [TGCATGCA_site689] | 9.12 ± 0.5 |
| TTGGTACCTATAGATACACACATATATACATATATA [CACACA_site3402] | 8.97 ± 0.35 |
| TAAGAGTAGTTATATACACACATGTATATTATAGTT [CACACA_site6815] | 9.03 ± 0.37 |
| ACATTATATAAATATATACATATATATATATATAAA [GTGCAC_negctrl_site115] | 8.75 ± 0.45 |
| TTTGATAAATGATACACACACAATATTTATAAAATA [CACACA_site7040] | 9.14 ± 0.38 |
| CCCACGTATATTTTGTGTACATAAATAAATAAATAA [XGTACX_site4046] | 8.86 ± 0.45 |
| TCTATTATCCTTTGCACACAAAATAAATGAAAAAAT [CACACA_site3029] | 8.88 ± 0.36 |
| ATATAAGTTTTTTCTCAAAAAGTATAACGAGCATGA [CACACA_negctrl_site1375] | 8.6 ± 0.4 |
| AAACAACAAAAATGATATATATAAAATTTATAATAT [XGTACX_negctrl_site185] | 8.74 ± 0.45 |
| ATGCATAAAAGAAATACACACATAAATATATAAATA [CACACA_site2163] | 9.12 ± 0.35 |
| TATGGATTACACAATTGTACAAGAAAAATGTAAATA [XGTACX_site4040] | 8.88 ± 0.51 |
| TGTCATGATACATACACACACATACACATACACATA [CACACA_site2135] | 9.71 ± 0.29 |
| TTTTTTTCATAATATACACACAAAAAAAAAAAAAAA [CACACA_site3224] | 8.46 ± 0.19 |
| TATACTCATATATAAACACACAAAAAAAAAAAAAAA [CACACA_site5165] | 8.72 ± 0.45 |
| ATATATATATATATGTGTACATATATATATCATATG [XGTACX_site3126] | 9.57 ± 0.071 |
| TTTCCCTACCAAAAGTGTACTTATACATATTTTTAT [XGTACX_site5495] | 8.84 ± 0.41 |
| ATACGAAAATATTTTGCACACTATAATTATTCATAT [CACACA_site1765] | 9.08 ± 0.38 |
| AAAAAAAAAAAAAAAGTGCATTAATAAATTTTAATA | 8.32 ± 0.53 |
| ACATCTATGTATAATACACACACTAATATATAATTG [CACACA_site5134] | 9.4 ± 0.28 |
| ACATATTATTCTTCTTGTACACATAAATTTTATAAA [XGTACX_site299] | 8.7 ± 0.42 |

| Sequence | gcPBM binding intensity (ln) |
| --- | --- |
| ATGACGTAGTGGTGTACACACATGGTACCTTTATTC [CACACA_site1547] | 9.37 ± 0.42 |
| AAAAAAATATTCAAAGCATGCCTATTTACACATATT [TGCATGCA_site806] | 8.91 ± 0.51 |
| TCTTATAATTTACCTACACACAGGAAATATATAAAT [CACACA_site294] | 8.77 ± 0.38 |
| ACACAATGTAGTGTATAAATACAATAAAAGGTTGTA [TGCATGCA_negctrl_site251] | 9.4 ± 0.59 |
| TCAGAAATATTACAAAGTACATGCAACGAAAATTTC [XGTACX_site5061] | 8.87 ± 0.35 |
| TGATATTTAAATTTTGCACACGCATATGAAATTAGG [CACACA_site1034] | 8.96 ± 0.29 |
| ATAAATATTATTTTACGTACATATTTATGAAGTATT [XGTACX_site8746] | 8.67 ± 0.35 |
| AAATTATAAAAATGTAGTACAGACAATATATTCGTA [XGTACX_site8307] | 8.93 ± 0.45 |
| CAGGAGAGAAAATATCGTACAAGCAAAAATAAGTGG [XGTACX_site8557] | 9.06 ± 0.48 |
| GTTTATATGTTCATAGTGCATATATGTTGATTTATT | 9.03 ± 0.39 |
| TTTTTTTTTTTTTACTGTACTTAATAAGATTGAATA [XGTACX_site2384] | 8.29 ± 0.42 |
| TATAAAAAAAAAAAAAAAAAAAAAAAAAAAAAAAAA [TGCATGCA_negctrl_site42] | 7.89 ± 0.22 |
| TATTATTTTAAGATTGTTTATGTAAAGAATTATGAA [CACACA_negctrl_site445] | 8.09 ± 0.35 |
| AAATTATATACCACAGTGCAAAAGGCAGGTATACGT | 9.24 ± 0.41 |
| TGTGTATATATGCTGGTGCAACTTTAAAAAATAATC | 8.71 ± 0.42 |
| GTAGAGAAAAAAATGTGGACACAAAAAATAAAAAGG [XGTACX_site4058] | 8.96 ± 0.45 |
| TATATTGCAAAAAGTACACACATAAATAAATACATA [CACACA_site6589] | 9.13 ± 0.45 |
| TTTTTTTTTTTTTGCACACACATATATAAATATATA [CACACA_site3949] | 9.15 ± 0.39 |
| AGTAGTCTGGAGAAGAGTACATAGTATCTGGTAGCT [XGTACX_site2017] | 8.91 ± 0.46 |
| CTACACACTTATAAATGTACAGGATTTAAGTATATG [XGTACX_site8245] | 8.86 ± 0.38 |
| TATTTATTTATTTTGTTATAATTAAAATGGATACAT [XGTACX_negctrl_site387] | 8.46 ± 0.45 |
